Data: publication PMC9574860, “Chemical Toolkit for PARK7: Potent, Selective, and High-Throughput” (Journal of Medicinal Chemistry, 2022)
Out of some 7,900 compounds screened, about 400 (5.1%) showed an effect of 50% or more. Some of the results follow. Non-standard residues stand in square brackets, D forms with d. Residues, ends and D or L forms follow the SMILES beside them. ξ: configuration not given here. *: point of attachment. Acryloyl = C=CC(=O)*; ξP = O=C(O)C1CCCN1

target: Parkinson's disease protein 7 (PARK7/DJ1) (human, UniProt Q99497); test: primary screen, percent inhibition; read as competition with a fluorescent probe by fluorescence polarization; higher = more effect of the substance; conditions: 100 µM
In short: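 Fluorescence-polarization probe displacement (JYQ-107, 20 nM final, 2 h) after 2 h preincubation of PARK7 (0.2 μM final) with each fragment at 100 μM final. Read-out ex/em 480/520 nm; remaining activity derived from FP signal loss relative to reference controls.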

Sequence of Parkinson's disease protein 7 (PARK7/DJ1) (Q99497 whole entry, looked up, the tested form may be a part): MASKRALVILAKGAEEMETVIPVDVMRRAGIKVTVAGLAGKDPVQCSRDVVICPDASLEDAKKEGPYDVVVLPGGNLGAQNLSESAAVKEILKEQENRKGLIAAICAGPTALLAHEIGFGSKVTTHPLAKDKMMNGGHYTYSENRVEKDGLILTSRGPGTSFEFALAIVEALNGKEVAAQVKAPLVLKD

Compound	Inhibition % [%]
CC1(C)OB(c2cccc3occc23)OC1(C)C	10.2
C=CC(=O)NCC1CCN(C)C1c1cccs1 (stereo not drawn)	8.73
C=CC(=O)NCC1CCC(=C)CC1	7.7
CCn1c(S)nc2scc(C)c2c1=O	3.15
CN(C)Cc1ccc(B(O)O)cc1F.Cl	5.41
Cc1ccc(C#N)nc1NCC1CCSCC1	3.23
CCc1nc(C#N)c(N2CCN(c3ccccc3)CC2)o1	2.75
c1ccc2c(c1)ncn2CCC1OCCO1	1.92
C=CC(=O)Nc1ccccc1C1CCC(=O)N1 (stereo not drawn)	7.72
Cc1ccc(Oc2ccc(C#N)nn2)cc1F	11.7
COc1ccnc(C#N)n1	8.62
COC(OC)C1CCCCC1=O (stereo not drawn)	2.2
O=C(CCl)NCCCc1ccccc1	8.89
CCN(CC)S(=O)(=O)c1ccc(NC(=O)CCl)cc1	90.5
C=CC(=O)NC(c1nccs1)C1CC1 (stereo not drawn)	12.2
Cc1[nH]c(C#N)cc1C(=O)O	6.7
N#Cc1cccc(-n2ccnc2)n1	9.34
c1cc2c(cc1C1CO1)OCO2 (stereo not drawn)	-1.48
N#CN(CCn1cncn1)c1ccccc1	6.47
O=C(CC1C=CS(=O)(=O)C1)NC1CCOc2ccccc21 (stereo not drawn)	8.51
CN(CCCl)Cc1ccc(F)cc1	7.18
O=C(CCl)Nc1ccc2[nH]c(C(F)(F)F)nc2c1	45
C=CC(=O)N1CCCc2sccc2C1	7.37
Cc1cc(Cl)c(Cl)cc1S(=O)(=O)n1cccn1	-3.64
Cc1cc(C)nc(S)n1	17.2
C=CC(=O)N1CCC(c2cccnc2OC)C1 (stereo not drawn)	10.3

Compound	Inhibition % [%]
CC1(C)OB(c2cccc(C(F)C(F)(F)F)c2)OC1(C)C (stereo not drawn)	-2.51
Cc1ccc(CN2CCCCC2C2OCCO2)o1 (stereo not drawn)	7.93
Cc1ccc(N2C(=O)CN=C2S)c(C)c1	9.16
O=C(CCCl)Nc1ccc(Cl)cc1	9.16
CCc1cccc(C)c1NC(=O)CCl	3.92
O=C(O)Cc1ccc(NC(=O)CCl)cc1	43.8
COc1cc(C=C(C#N)C(=O)NC(C)C)sn1	28.9
N#Cc1cncc(N2CCCCC2C2CCC2)n1 (stereo not drawn)	15.3
C=CC(=O)NC(C)C(=O)N1CCOCC1 (stereo not drawn)	11.8
C=CC(=O)Nc1ccc(OC2CCN(C)CC2)nc1	11.8
CCCC(NC(=O)CCl)c1ccccc1 (stereo not drawn)	14.5
C1CNCC(C2OCCO2)C1 (stereo not drawn)	10.9
Clc1cnc(C2OCCO2)s1	10.9
C=CC(=O)NC1CCc2ccccc2CC1	5.66
O=C(CCl)NCCc1ccsc1	27.9
CCn1c(C)cc(C(=O)CCl)c1C	56
O=C(CN1CCSC1=O)Nc1nc2c(s1)CCCCC2	12.6
CC(c1ccsc1)N1CCN(c2ccc(C#N)nc2)CC1 (stereo not drawn)	7.22
NC1CCCN(C(=O)C=Cc2ccc(Cl)s2)C1 (stereo not drawn)	5.91
N#Cc1cccc(Sc2cnccn2)n1	9.08
Cc1ccc(C=C(C#N)C(N)=O)cc1F	5.82
Nc1ccc(CN2C(=O)CSC2=O)cc1	10.9
CC(=O)Nc1ccccc1OC(=O)N(C)C	4.68
Cc1ccc(-n2nc(C)c(NC(=O)CCl)c2C)cc1	4.3
CSC1(CNc2cccc(C#N)n2)CCC1	11.9
Cc1cc(C=C(C#N)C(=O)N2CCCC2)cc(C)c1O	4.3

Compound	Inhibition % [%]
O=C(c1cccs1)N1CCC(CS(=O)(=O)F)CC1	35.6
O=C(Oc1ccc(-c2nnco2)cc1)N1CCCCC1	4.2
Cl.O=S(=O)(F)CC1CCCNC1 (stereo not drawn)	7.49
C#CCn1c(-c2ccccn2)noc1=O	17.3
N#CC(=Cc1[nH]c2ccccc2c1Cl)C(N)=O	2.42
O=C(CCl)NOCc1ccccc1	28.6
C=CC(=O)NC1COc2cc(OC)ccc2C1 (stereo not drawn)	5.79
N#Cc1cc(NCC2CCSCC2)ncn1	12.1
Cc1c(C=C2C(=O)N(C)c3ccccc32)cc(C#N)n1C	6.79
O=C(CN1CCSC1=O)Nc1ccc2[nH]ncc2c1	60.9
Cc1ccn(S(=O)(=O)c2ccc(Cl)cc2)n1	-3.58
O=S1(=O)CCCC(CCl)C1 (stereo not drawn)	-4.37
C=CC(=O)N1CCSCC1c1ccccc1 (stereo not drawn)	1.86
N#Cc1nnn(Cc2ccccc2)c1N	7.25
O=c1[nH]c(-c2ccc(S(=O)(=O)F)cc2)nc2ccccc12	13
C=CC(=O)NCC1(C)CCOC2(CCC2)C1 (stereo not drawn)	13.5
CCOc1ccccc1C=C(C#N)C(N)=O	8.86
CC1(C)OB(c2cccc(S(=O)(=O)C(F)(F)F)c2)OC1(C)C	2.66
C=CC(=O)N1CCC(c2nccn2C)C1 (stereo not drawn)	5.02
N#Cc1ncn(CC(=O)N2CCc3sccc3C2)n1	10.8
N#CC(=Cc1ccc(N)cc1)C(=O)N1CCCC1	4.39
O=C(CNC(=O)c1cccnc1S)Nc1ccccn1	-0.307
Cl.O=c1[nH]nc(C2CCNCC2)o1	7.63
Cc1ccc(C=CS(=O)(=O)N2CCC(C(=O)O)CC2)cc1	10.7
CCCc1ccc(-c2csc(NC(=O)CCl)n2)cc1	4.59
O=C(CCl)NC(=O)NC1CCCC1	21.6

Compound	Inhibition % [%]
CC(C)[C@@H]1N[C@H]1c1ccccc1 (racemic)	1.24
O=S1(=O)C=CC(Nc2cccc(Cl)c2)C1 (stereo not drawn)	12.4
CN1CCCN(c2ccc(C#N)nc2)CC1	14.2
CC1(C(=O)Nc2cccc(S(=O)(=O)F)c2)CCOCC1	83.4
C=CC(=O)N1CCC1Cc1ccccc1 (stereo not drawn)	4.58
O=C(Oc1ccc(Cl)cc1)N1CCOCC1	5.25
C=CC(=O)N1CCN(C(c2ccccc2)C(F)(F)F)CC1 (stereo not drawn)	9.48
N#Cc1ccc(N2CCN(C(=O)C(F)F)CC2)cn1	3.45
CCc1noc(CC)c1CNCc1cccc(B(O)O)c1	10.2
C=CC(=O)N1CCCC(C(=O)Nc2nc(C)cs2)C1 (stereo not drawn)	5.32
CCOc1ccncc1S(=O)(=O)Oc1cccc(F)c1	58.4
O=C(CCl)NCC1CCCCC1	13.2
Cc1nn(C)c(N)c1SC#N	-3.41
O=C(O)Cc1ccc(CS)cc1	58.7
CC1(C)OB(Cc2cccc(F)c2)OC1(C)C	6.15
O=C(CCl)N(Cc1ccccc1)Cc1ccco1	12.3
C=CC(=O)Nc1nccn1Cc1ccccc1F	11.5
O=C(c1ccccc1)N1CCCC(CS(=O)(=O)F)C1 (stereo not drawn)	71.4
O=C(O)CNC(=O)C12CC3CC(CC(Cl)(C3)C1)C2	7.56
N#Cc1cccc(N2CC(C(F)(F)F)C2)n1	9.07
O=S(=O)(c1ccc(F)cc1)n1nnc2ccccc21	9.15
CNC1CCCN(C(=O)C=Cc2cncc(F)c2)C1 (stereo not drawn)	29.3
CC1(C)OB(C=C2CCS(=O)(=O)CC2)OC1(C)C	-3.41
Cc1cc(C(=O)CCl)c(C)n1C1CC1	65
N#Cc1ncn(CC(=O)c2ccc(Cl)s2)n1	3.91
CCOC1CCCN(c2nc3ccccn3c2C#N)C1 (stereo not drawn)	0.705

Compound	Inhibition % [%]
N#Cc1cnc(Cl)cn1	6.47
Clc1csc(C2OCCO2)n1	-0.564
O=C(CCl)c1c[nH]c2ccccc12	37.9
CCOc1cc(S(=O)(=O)n2ccc(C)n2)c(C)cc1C	5.8
CC(C)CN1CCN(c2ccc(C#N)nc2)C(C)C1=O (stereo not drawn)	5.84
C=CC(=O)N1CCOC(c2cccc(F)c2)C1 (stereo not drawn)	4.38
C=CC(=O)N1CCC(c2nc(C(F)(F)F)c[nH]2)CC1	0.0839
C=CC(=O)NCC(=O)N1CCCC1C(=O)NC (stereo not drawn) (Acryloyl-Gly-[ξP]-NHMe)	9.62
O=C(NCC1CCCC1)N1CCCCC1C1OCCO1 (stereo not drawn)	5.42
CCCc1nc(C#N)c(NCc2cccnc2)o1	7.03
C=CC(=O)NC1CCN(Cc2ccc(Cl)cc2)CC1	9.09
CC1(C)C(=O)NC1C1CCCO1 (stereo not drawn)	2.01
Cc1ccc(C=CS(=O)(=O)N(C)Cc2cscn2)cc1	5.66
C=CC(=O)NC1CCCN2CCCCC12 (stereo not drawn)	35.3
C=CC(=O)N(C)CC(=O)Nc1cc2c([nH]c1=O)CCCC2	22.7
CC1(C)OB(c2ccc3ccc(=O)[nH]c3c2)OC1(C)C	4.19
CC1(C)OB(c2cccc(S(C)(=O)=O)c2)OC1(C)C	6.06
NC1CCN(C(=O)C=Cc2cncc(F)c2)C1 (stereo not drawn)	4.49
Cc1cnn(CC2CCCN2C2CC(C)OC2=O)c1 (stereo not drawn)	4.2
CC(C)n1c(S)nc2ccccc2c1=O	6.34
Cc1ccc(-c2csc(NC(=O)CCl)n2)cc1	11
COc1ccc2c(c1)CCCN2C(=O)CN1CCSC1=O	2.74
